# Test results published in PubChem BioAssay (Tox21).
# Values joined by “and” are separate entries in the source; they are usually repeats but may differ in a detail not shown here. Equal entries are not always repeated. This list was built around the results that the source calls inconclusive (neither active nor inactive); the mix of calls is not that of the screen. For some of these results: Potencies beside an inconclusive call are fits to weak or partial responses and may not hold up. Active and inactive are the calls of the source. Unless noted, the call rests on the fitted dose curve; in most records, active means well fitted curve in the direction sought with a large enough effect in the repeat runs; inconclusive means weak or mixed curves; inactive means no such curve, though single readings can be large; an effect the other way counts as inactive or inconclusive.
# Tests used:
# [1] = qHTS assay for identifying genotoxic compounds that show differential cytotoxicity against isogenic chicken DT40 cell lines with known DNA damage response pathways - wild type cell line (AID 743012); conditions: DT40 wild type chicken cells viability, CellTiter-Glo, 40 h; activity change, negative = cytotoxicity: at 68.4 µM (top of the series) unless noted; further: nearly all actives have a fitted effect of over 60% in size
# Method in brief: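 Luminescent ATP viability signal (CellTiter-Glo, 30 min RT) recorded after wild type DT40 cells were incubated with compounds for 40 h at 37 C/5% CO2.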
# [2] = qHTS assay for identifying genotoxic compounds that show differential cytotoxicity against isogenic chicken DT40 cell lines with known DNA damage response pathways - Rev3 mutant cell line (AID 743014); conditions: chicken DT40 Rev3-/- viability, CellTiter-Glo, 40 h; activity, negative = cytotoxicity: at 68.4 µM (top of the series) unless noted; further: nearly all actives have a fitted effect of over 55% in size; on activity, negative = cytotoxicity: on the % scale 0 is the no-effect control and ±100 the full control effect
# [3] = qHTS assay to identify small molecule antagonists of the thyroid receptor (TR) signaling pathway (AID 743065); conditions: GH3.TRE-Luc, T3-stimulated luciferase inhibition, 23.5 h; series mostly up to 70.3 µM; further: nearly all actives have a fitted effect of over 55% in size; on activity, negative = inhibition: on the % scale 0 is the no-effect control and ±100 the full control effect
# Method in brief: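 GH3.TRE-Luc rat pituitary cells (two TREs driving luciferase) were dosed with compound, then stimulated with 1 nM T3 (final) for 23.5 h at 37 C. ONE-Glo luminescence was the read-out, with CellTiter-Fluor fluorescence as the cytotoxicity counter-screen.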
# [4] = molecular target: Estrogen receptor (Homo sapiens) (UniProt P03372); experiment: qHTS assay to identify small molecule antagonists of the estrogen receptor alpha (ER-alpha) signaling pathway (AID 743069; active means well fitted curve in the direction sought with a large enough effect in the signal ratio in the repeat runs, not every such curve was filed as active; inconclusive means weak or mixed curves, or effect the other way; inactive means no such curve, though single readings can be large or run the other way; the % refers to the signal ratio); conditions: HEK293 ER-alpha-UAS-bla, beta-lactamase ratio, antagonist mode; activity, negative = inhibition: at 69.4 µM (top of the series) unless noted
# UniProt P03372, sequence (P03372 whole entry, looked up): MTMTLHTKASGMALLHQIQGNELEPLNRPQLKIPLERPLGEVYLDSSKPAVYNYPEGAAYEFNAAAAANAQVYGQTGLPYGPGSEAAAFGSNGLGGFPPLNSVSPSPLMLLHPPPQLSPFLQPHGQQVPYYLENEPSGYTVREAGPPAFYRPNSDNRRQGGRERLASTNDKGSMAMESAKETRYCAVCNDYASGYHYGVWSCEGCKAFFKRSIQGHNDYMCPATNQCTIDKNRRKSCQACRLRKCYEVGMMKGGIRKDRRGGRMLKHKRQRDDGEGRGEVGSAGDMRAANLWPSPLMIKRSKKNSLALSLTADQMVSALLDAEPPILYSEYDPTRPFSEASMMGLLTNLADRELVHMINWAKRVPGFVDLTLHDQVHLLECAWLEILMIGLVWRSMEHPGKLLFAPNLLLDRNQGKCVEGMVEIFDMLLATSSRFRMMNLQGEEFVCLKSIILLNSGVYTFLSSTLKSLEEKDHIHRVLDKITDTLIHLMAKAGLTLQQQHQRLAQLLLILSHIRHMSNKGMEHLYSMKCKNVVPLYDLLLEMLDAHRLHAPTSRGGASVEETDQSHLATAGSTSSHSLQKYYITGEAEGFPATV
# Method in brief: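 In this cell-based reporter format, GripTite HEK293 cells harbouring ER-alpha-UAS-bla were grown overnight with 2% charcoal-stripped FBS, dosed with DMSO-dissolved compounds, then challenged with 17beta-estradiol. After 18 hr at 37C, beta-lactamase activity was detected by FRET fluorescence.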
# [5] = qHTS assay to identify small molecule antagonists of the estrogen receptor alpha (ER-alpha) signaling pathway using the BG1 cell line (AID 743080; calls by dose curve; further: nearly all actives have a fitted effect of over 25% in size); conditions: BG1Luc4E2 ERE-luciferase antagonist mode, luminescence; activity change, negative = inhibition: at 70.3 µM (top of the series) unless noted
# Method in brief: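 Antagonist mode: compounds in DMSO were pinned onto BG1-Luc-4E2 cells alongside 17beta-estradiol agonist, incubated 21.5 h, and ERE-driven luciferase measured with ONE-Glo. Cytotoxicity was multiplexed using CellTiter-Fluor fluorescence.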
# [6] = qHTS assay to identify small molecule antagonists of the thyroid receptor (TR) signaling pathway - cell viability counter screen (AID 743064); conditions: GH3.TRE-Luc viability, CellTiter-Fluor, 24 h; activity change, negative = cytotoxic: at 70.3 µM (top of the series) unless noted; further: nearly all actives have a fitted effect of over 50% in size
# Method in brief: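 In-well cytotoxicity read by CellTiter-Fluor (30 min, 37 C) following 23.5 h exposure of GH3 cells bearing a TRE-luciferase sensor. Compounds were added alongside 1 nM (final) T3 to drive TR transactivation.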
# [7] = qHTS assay to identify small molecule antagonists of the estrogen receptor alpha (ER-alpha) signaling pathway using the BG1 cell line - cell viability counter screen (AID 743081); conditions: BG1Luc4E2 viability, CellTiter-Fluor, 22 h; series mostly up to 70.3 µM;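 further: compound given together with 17beta-estradiol as the ER stimulus; nearly all actives have a fitted effect of over 45% in size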
# [8] = molecular target: Estrogen receptor (Homo sapiens) (UniProt P03372); experiment: qHTS assay to identify small molecule agonists of the estrogen receptor alpha (ER-alpha) signaling pathway using the BG1 cell line (AID 743079); conditions: BG1Luc4E2 cells, ERE-luciferase agonist, 22 h; activation: at 70.3 µM (top of the series) unless noted; further: nearly all actives have a fitted effect of over 20% in size; on activation: on the % scale 0 is the no-effect control and ±100 the full control effect
# [9] = qHTS assay to identify aromatase inhibitors - cell viability counter screen (AID 743084); conditions: MCF-7 aro ERE viability, CellTiter-Fluor, 24 h; activity change, negative = cytotoxicity: at 70.3 µM (top of the series);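 further: cells stimulated with testosterone during compound exposure; nearly all actives have a fitted effect of over 55% in size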
# Potency means the concentration at half of the fitted maximal effect; tags describe the fitted curve by direction and shape or compound fluorescence and quenching.
structure (smiles),measurement,setting,value
O=C(C(=O)c1ccco1)c1ccco1,Potency,[1],inconclusive: 69.1 µM [single point]
same,Potency,[2],inactive
same,Potency,[3],inactive
CC[C@H](NC(=O)c1cc(F)ccc1NS(=O)(=O)c1cccc2cccnc12)c1ccccc1,Potency,[1],"inconclusive: 64.9 µM [cytotoxic, single point]"
same,Potency,[2],active: 57.9 µM
same,Potency,[3],"inconclusive: 64.9 µM [inhibitor, single point]"
same,Potency,[4],inconclusive: 58.3 µM [cytotoxic]
same,Potency,[5],"inconclusive: 72.8 µM [falling, partial curve, poor fit]"
O=S(=O)(O)c1ccc(O)c2ncccc12,Potency,[1],"inconclusive: 38.2 µM [rising, single point]"
same,Potency,[2],inactive
same,Potency,[6],"inconclusive: 42.8 µM [rising, partial curve, poor fit]"
same,Potency,[7],"inconclusive: 67.9 µM [rising, partial curve, poor fit]"
Oc1cccc(O)c1O,Potency,[1],"active: 26.6 µM and inconclusive: 68 µM [cytotoxic, single point]"
same,Potency,[2],"inconclusive: 33.5 µM [cytotoxic, single point] and active: 48.1 µM"
same,Potency,[4],"inconclusive: 23.9 µM [activator] and inconclusive: 8.63 µM [activator, full curve, poor fit]"
same,Potency,[8],active: 5.96 µM
same,activation,[8],inconclusive: 22.7% [phenotype inactive]
same,Potency,[7],inconclusive: 68 µM [cytotoxic]
same,Potency,[9],"inconclusive: 54 µM [cytotoxic, partial curve]"
